The values below are quoted from earlier work in article PMC11006913.

Common to all, as to settings: PBM; conditions not shown; double strand, one strand shown; scale: upbm affinity estimate (log intensity, higher = more binding, comparable within an allelic series)
In data set [1] the target is HOXD13 Q325K (Homo sapiens) (UniProt P35453).
The target of data set [2] is HOXD13 Q325R (Homo sapiens) (UniProt P35453).
Data set [3] concerns the target PITX2 L100Q (Homo sapiens) (UniProt Q99697).
In data set [4] the target is PITX2 R108H (Homo sapiens) (UniProt Q99697).
Data set [5] concerns the target PITX2 R130W (Homo sapiens) (UniProt Q99697).
Data set [6] concerns the target PITX2 T114P (Homo sapiens) (UniProt Q99697).
For data set [7], the target named is HOXD13 R306W (Homo sapiens) (UniProt P35453).
A further data set addresses ISX (Homo sapiens) (UniProt Q2M1V0).
The target in a further data set is ISX R83Q (Homo sapiens) (UniProt Q2M1V0).
Data set [8] has as its target PROP1 R112Q (Homo sapiens) (UniProt O75360).
Chain of UniProt O75360 (O75360 56-141 R112Q): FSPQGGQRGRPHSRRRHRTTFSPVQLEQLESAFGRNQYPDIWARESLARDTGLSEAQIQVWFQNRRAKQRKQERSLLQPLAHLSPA

Some of the results follow.

Turning to AGTATAAA [8-mer AGTATAAA], the binding signal in data set [1] is 12.8; in data set [2] it was 12.6.
Regarding AGGATTAA [8-mer AGGATTAA], the binding signal in [1] was 12.3; in data set [3], 11.8; in [4] it was 10; in [5], 8.81; in data set [6] it was 10.6.
Turning to GCGTATAA [8-mer GCGTATAA], the results for the binding signal in [1] and in data set [2] were 12.2 and 12, respectively.
Take GCGGATAA [8-mer GCGGATAA]: the binding signal in data set [1] was 12.3; in data set [3], 9.96; in data set [4], 8.73; in [5] it was 8.47.
For TGTATAAA [8-mer TGTATAAA], the values for the binding signal in data set [1] and in [2] were 12.6 and 12.7, respectively.
CATTTATA [8-mer CATTTATA]: the binding signal in [1] was 12.2; in [2], 12; in data set [7], 11.6.
Turning to CGTATAAA [8-mer CGTATAAA], the values for the binding signal in [1] and in data set [2] were 13.1 and 12.8, respectively.
Consider TTATAAAA [8-mer TTATAAAA], for which the binding signal was 12.4 in data set [1], 12.1 in data set [2] and 11.6 in data set [7].
On to ATATAAAT [8-mer ATATAAAT], for which the values for the binding signal in [1], in data set [2] and in data set [7] were 12.2, 12.2 and 11.7, respectively.
Regarding GGGATTAA [8-mer GGGATTAA], the binding signal in data set [1] was 12.4; in data set [3], 12; in data set [4] it was 10.2; in [5] it was 8.74; in data set [6], 10.9.
GGATTAAC [8-mer GGATTAAC]: the binding signal in data set [1] was 12.2; in [3], 11.8; in data set [4], 9.98; in data set [5], 8.57; in [6], 10.5.
For AATTTATC [8-mer AATTTATC], the binding signal was 12.2 in [1], 12.8 with ISX (Homo sapiens) and 11.7 in the data set with ISX R83Q (Homo sapiens).
In the case of GCATAAAA [8-mer GCATAAAA], the binding signal in data set [1] is 13; in [2], 12.2.
Consider GGTTTATA [8-mer GGTTTATA], for which the values for the binding signal in [1] and in [2] were 12.4 and 12.3, respectively.
CTTTATAC [8-mer CTTTATAC]: the binding signal in data set [1] is 12.8; in [2] it was 12.4.
As to GTATAAAA [8-mer GTATAAAA], the binding signal was 13.2 in data set [1] and 13 in data set [2].
Turning to TGGATAAA [8-mer TGGATAAA], the binding signal in data set [1] is 12.6.
With CGGATTAA [8-mer CGGATTAA], the binding signal in data set [1] is 12.5; in data set [3], 11.5; in data set [4], 9.79; in data set [5] it was 8.53; in [6], 10.2.
With CTTTTATA [8-mer CTTTTATA], the binding signal in data set [1] was 12.4; in [2], 12.2; in data set [7], 11.6.
Regarding GTTTAAAC [8-mer GTTTAAAC], in data set [1], the binding signal is 12.4.
As for CGCATAAA [8-mer CGCATAAA], the binding signal in data set [1] was 12.5; in [2], 12.1.
On to GATATAAA [8-mer GATATAAA], for which the binding signal in data set [1] and in [2] was 12.2 each time.
Take GAGATAAA [8-mer GAGATAAA]: the binding signal was 12.4 in data set [1], 9.88 in [3], 8.83 in data set [4] and 8.73 in data set [5].
Consider ATTAATAC [8-mer ATTAATAC], for which the binding signal in data set [1] is 12.7; in [2] it was 12.4; in data set [6], 9.56.
For the sequence GGTATTAA [8-mer GGTATTAA], the results for the binding signal in data set [1], in [2] and in data set [6] were 12.8, 12.2 and 9.56, respectively.
For the sequence GATAAAAA [8-mer GATAAAAA], the binding signal in data set [1] is 12.4.
With CTTAATCC [8-mer CTTAATCC], the binding signal was 12 in [1]; 11.6 in data set [3]; 9.86 in [4]; 8.63 in data set [5]; 10.4 in [6].
As to CGTATTAA [8-mer CGTATTAA], the binding signal in data set [1] is 12.4; in data set [2], 12.3.
Consider GTATTAAA [8-mer GTATTAAA], for which the figures for the binding signal in [1] and in [2] were 12.6 and 12.4, respectively.
Consider GATAAAAC [8-mer GATAAAAC], for which the binding signal in [1] is 12.6; in [2] it was 12.
With TATAAACA [8-mer TATAAACA], the binding signal in [1] is 12.2; in [2] it was 12.2; in data set [7], 11.5.
In the case of GTTATAAA [8-mer GTTATAAA], the binding signal in data set [1] is 12.5; in [2] it was 12.1.
With CGTGTAAA [8-mer CGTGTAAA], the binding signal in data set [2] is 12.5.
For CTTTGTAC [8-mer CTTTGTAC], the binding signal in data set [2] is 12.5.
As for GTTTTAGA [8-mer GTTTTAGA], the binding signal in data set [2] is 11.6.
As for GGTTGTAC [8-mer GGTTGTAC], in data set [2], the binding signal was 11.4.
In the case of GTCTAAAA [8-mer GTCTAAAA], the binding signal in [2] is 12.3.
Take TTGTACAA [8-mer TTGTACAA]: the binding signal in data set [2] was 12.
Turning to TGGTACAA [8-mer TGGTACAA], in [2], the binding signal is 11.8.
With GATAAATA [8-mer GATAAATA], the binding signal was 12.3 in [1] and 12 in [8].
As for CTTATCAC [8-mer CTTATCAC], in [2], the binding signal was 10.6.
As to ATACAAAA [8-mer ATACAAAA], in [2], the binding signal was 12.1.
Regarding CGTCTAAA [8-mer CGTCTAAA], the binding signal in data set [2] was 12.1.
On to TGATAAAA [8-mer TGATAAAA], for which the binding signal in data set [2] was 12.1.
AGTACAAC [8-mer AGTACAAC]: the binding signal in data set [2] is 11.3.
Regarding GTCTAAAC [8-mer GTCTAAAC], the binding signal in data set [2] was 11.9.
As to ATAAAATC [8-mer ATAAAATC], the binding signal in data set [2] is 12.
Take GTGTACAA [8-mer GTGTACAA]: the binding signal in data set [2] was 11.8.
For the sequence GGAATTAA [8-mer GGAATTAA], the binding signal in data set [1] was 12.3; in [3], 10.8; in [4], 9.44; in [5] it was 8.88; in data set [6] it was 9.49.
Take ATTAGTAC [8-mer ATTAGTAC]: the binding signal in [2] was 12.1.
For GGTACAAA [8-mer GGTACAAA], in data set [2], the binding signal was 12.7.
